Among all 150,000 compounds or so, about 540 (0.36%) showed an effect of 50% or more. This is one part of the list.

The test relates to Plasmodium falciparum. As to the kind of experiment: Primary screen in NF54 nanoGlo assay, in single point, at 2uM, 72h; a lower Z score goes with more inhibition. In kind it is functional, Erythrocyte. To be noted: timepoint 72 hour.
As a reminder, the % Inhibition is the relative decrease from the control value, in per cent. On to `O=C(c1oc2ccccc2c1Cn1cccn1)N1CC(CF)C1`, for which the “% Inhibition” value worked out at 31% and the Z score is -3.

For `CCOc1ccc(C(=O)N2C[C@H]3COCC[C@@]3(O)[C@@H]3COCC[C@@H]32)cc1`, the “% Inhibition” value is given as -24% and the Z score is 2.39.

`COCCCCC(=O)N1CC(C)N(C(=O)OC(C)(C)C)C(C)C1` (centres undefined): the “% Inhibition” value came to 2% and the Z score is -0.29.

For `Cn1c(=O)c(-c2noc(C(=O)NCCN3CCOCC3)n2)nn(-c2ccccc2)c1=O`, the “% Inhibition” value was determined as 1% and the Z score is -0.26.

As for `Cn1cccc1[C@@H]1CCCN1Cc1cc(=O)n(C)c(=O)n1C`, the “% Inhibition” value is -12% and the Z score is on record as 1.57.

`Cc1cc(Cl)cc(Cl)c1CNC(=O)c1cncn1-c1cccc(-c2cccc(OC(F)(F)F)c2)c1`: the “% Inhibition” value turned out to be 2% and the Z score is reported as -0.23.

In the case of `O=S(=O)(NCC[C@H](O)c1ccco1)C1CC1`, the “% Inhibition” value is recorded as -19% and the Z score is recorded as 2.77.

As for `CC(=O)c1cn(C[C@H]2CCOC2)c(=O)n(C)c1=O`, the “% Inhibition” value is given as -12% and the Z score is 1.32.

Consider `CC1CCN(C(=O)Nc2ccc3snnc3c2)CC1`, for which the “% Inhibition” value is -42% and the Z score is 4.98.

In the case of `Cn1ncn(CC(=O)Nc2ccccc2Cl)c1=O`, the “% Inhibition” value was -12% and the Z score was found to be 2.41.

In the case of `Cc1nc(CCC(=O)N2CC[C@H](CC(C)C)C2)n[nH]1`, the “% Inhibition” value is -3% and the Z score is listed as 0.36.

Regarding `CCC(=O)N(CC(=O)N(Cc1ccc(F)cc1)Cc1ccc(C)s1)[C@@H](C)CC`, the “% Inhibition” value was -2% and the Z score is recorded as 0.24.

As to `CN(Cc1noc(-c2ccccc2)n1)C[C@H]1CCS(=O)(=O)C1`, the “% Inhibition” value was -3% and the Z score was 0.43.

With `O=C([C@@H]1CN(S(=O)(=O)c2ccccc2Cl)CCO1)N1CCC(c2nc3cc(Cl)ccc3s2)CC1`, the “% Inhibition” value was -4% and the Z score is 0.66.

Turning to `C[C@H]1CN(CC(=O)Nc2ccc(Cl)cc2Cl)Cc2c[nH]nc21`, the “% Inhibition” value is on record as -7% and the Z score was 0.72.

For `CC(C)(C)n1cc(CN2CC(=O)Nc3ccccc3C2)nn1`, the “% Inhibition” value stood at 21% and the Z score is -2.41.

With `CC[C@H](C)N(C)S(=O)(=O)c1ccc(OCC(F)(F)F)nc1`, the “% Inhibition” value is listed as -13% and the Z score came to 1.47.

On to `CC(C)Cn1ncc2[nH]c(-c3cccs3)nc21`, for which the “% Inhibition” value is -3% and the Z score came out at 0.39.

Take `CO[C@@](F)(C(=O)Nc1ccccc1C(=O)O)C(F)(F)F`: the “% Inhibition” value is given as -7% and the Z score turned out to be 0.96.

On to `Cn1cnc2c1CCN(Cc1coc(-c3ccccc3)n1)C2`, for which the “% Inhibition” value is given as -14% and the Z score amounted to 1.29.

Take `CC(=O)c1ccc(F)cc1NS(=O)(=O)N(C)C`: the “% Inhibition” value is recorded as -8% and the Z score worked out at 0.95.

On to `c1cc2occc2c(N2CCC(C3OCCO3)CC2)n1`, for which the “% Inhibition” value stood at 26% and the Z score was -2.96.

As to `CN(Cc1cc(-c2ccccn2)no1)S(=O)(=O)c1cn(C)c(=O)n(C)c1=O`, the “% Inhibition” value is on record as -13% and the Z score came to 2.52.

For `O=S(=O)(Nc1nc2n(n1)CCCC2)c1ccsc1`, the “% Inhibition” value is reported as 7% and the Z score is given as -1.26.

Consider `O=C(NCc1ccc2c(c1)OCO2)c1nn[nH]c1Nc1cccc(F)c1`, for which the “% Inhibition” value is on record as -20% and the Z score came out at 2.23.

Regarding `Cc1nn(CC(F)F)cc1-c1nc([C@H]2CCc3ccccc32)no1`, the “% Inhibition” value worked out at 3% and the Z score is on record as -0.67.

For `Cc1ccc(-c2cn(CC(=O)N(C)c3ccccc3)nc2N2CCOCC2)cc1`, the “% Inhibition” value is -11% and the Z score came out at 1.3.

Regarding `CNC(=O)NC(=O)CCN(C[C@H](O)c1ccccc1)CC(C)(C)C`, the “% Inhibition” value is -4% and the Z score was determined as 0.79.

As for `COc1ccc(C2(NCc3cnn(CC(F)F)c3)CCOCC2)cc1F`, the “% Inhibition” value was -13% and the Z score is listed as 1.67.

Turning to `C[C@@H](CNC(=O)CS(=O)(=O)C(C)(C)C)c1nc2ccccc2o1`, the “% Inhibition” value is reported as -16% and the Z score amounted to 2.16.

On to `Cc1cc(C)c(CN2CCC(n3nccc3NC(=O)[C@H]3CCOC3)CC2)cc1C`, for which the “% Inhibition” value is given as 0% and the Z score turned out to be 0.01.

For `NC(=NCCCOCc1ccco1)NC1CCCCC1`, the “% Inhibition” value is given as -2% and the Z score stood at 0.23.

Regarding `Cc1occc1CN(C)C(=O)Nc1nc(C2CCC2)cs1`, the “% Inhibition” value came to 0% and the Z score is -0.02.

On to `Cc1ccc2nc(CN3CCN(C(=O)NC[C@H]4CCCO4)CC3)oc2c1`, for which the “% Inhibition” value was -15% and the Z score turned out to be 1.36.

In the case of `Cc1cnc(C(=O)N2CCN(Cc3ccccc3)[C@@H]3CS(=O)(=O)C[C@@H]32)cn1`, the “% Inhibition” value amounted to 1% and the Z score is reported as -0.16.

On to `O=C(c1ccc(-n2cnnn2)cc1)N1CCOc2ccc(CN3CCN(CCO)CC3)cc2C1`, for which the “% Inhibition” value was -5% and the Z score came to 0.57.

As to `Cc1cc(C(=O)N2CCN(C3CCCCC3)CC2)c2c(C)nn(-c3cccc(Cl)c3C)c2n1`, the “% Inhibition” value is listed as -17% and the Z score is on record as 1.74.

As for `Cc1c(NC(=O)N[C@H]2[C@H](c3ccccc3)C2(C)C)nnn1C`, the “% Inhibition” value is given as 0% and the Z score is recorded as 0.01.

With `O=C1c2ccccc2N[C@H](c2cnc(C3CCC3)s2)N1CCO`, the “% Inhibition” value is -8% and the Z score is 1.21.

On to `O=C(c1ccc2ncccc2c1)N1CCC(Cc2ccc(CO)cc2)CC1`, for which the “% Inhibition” value was -2% and the Z score is on record as 0.41.

As for `OC[C@H]1Cc2ccccc2N1Cc1cscn1`, the “% Inhibition” value is recorded as -11% and the Z score came out at 1.48.

As for `C[C@H]1CN(C(=O)C2(C)CCCCC2)c2ccccc21`, the “% Inhibition” value is -1% and the Z score is recorded as 0.25.

(Values after ChEMBL document CHEMBL4888484, “Replenishing the malaria drug discovery pipeline: Screening and hit evaluation of the MMV Hit Generation Library 1 (HGL1) against asexual blood stage Plasmodium falciparum ,using a nano luciferase reporter read-out” (2022).)
